Measured values as given in the supplement of paper PMC7125110.
± gives the standard error. Variants at the background level are over-represented here.

B1: glmS ribozyme (parent)
chain: AUAAAAGCGCCAGAACUACAGAAAUGUAGUUGACGAGGAGGAGGUUUAUCGAAUUUUCGGCGGAUGCCUCCAAA

Columns and labels:
Settings in all cases: with glucosamine-6-phosphate
glucosamine-6-phosphate [1] = variants of: B1; assay: self-cleavage kobs at 640 uM GlcN6P; higher = faster cleavage; RNA array
In short: (§1)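 On sequenced MiSeq chips, barcoded ribozyme variants were made in situ by E. coli RNA polymerase and followed at 37 °C through a hybridised Cy3 probe. Glucosamine-6-phosphate was flowed in at 40 μM to 10 mM in HEPES/KCl/Mg(OAc)2 buffer. Exponential fits to normalised per-tile medians gave kobs, and weighted Michaelis–Menten fits gave kcat and KM.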

glucosamine-6-phosphate [2] = variants of: B1; assay: self-cleavage kobs at 2500 uM GlcN6P; higher = faster cleavage; RNA array
In short: as §1

glucosamine-6-phosphate [3] = variants of: B1; assay: self-cleavage kobs at 10000 uM GlcN6P; higher = faster cleavage; RNA array
In short: as §1

glucosamine-6-phosphate [4] = variants of: B1; assay: self-cleavage kobs at 160 uM GlcN6P; higher = faster cleavage; RNA array
In short: as §1

Variant	self-cleavage kobs at 640 uM GlcN6P (glucosamine-6-phosphate [1]) [s⁻¹]	self-cleavage kobs at 2500 uM GlcN6P (glucosamine-6-phosphate [2]) [s⁻¹]	self-cleavage kobs at 10000 uM GlcN6P (glucosamine-6-phosphate [3]) [s⁻¹]	self-cleavage kobs at 160 uM GlcN6P (glucosamine-6-phosphate [4]) [s⁻¹]
A39U G40A C67A	0.000124 ± 3.1e-05	0.000245 ± 6.5e-05	0.000247 ± 5e-05	–
A39U G41U G44U C71U	< 1e-05	–	–	–
A39U G41U U47A A52C	< 1e-05	< 1e-05	–	–
A39U U49C G66U	< 1e-05	< 1e-05	–	–
G40A A48G G60C	< 1e-05	< 1e-05	–	–
G40A A53C C61U	< 1e-05	–	–	–
G40A C50G A52U U56G	< 1e-05	–	–	–
G40A G43U A53U	< 1e-05	–	–	< 1e-05
G40A G44U C61A	< 1e-05	–	–	< 1e-05
G40A U57A C71U	6.1e-05 ± 2.3e-05	0.000149 ± 3.4e-05	–	–
G40C A42G A53C	0.00018 ± 6.6e-05	0.000564 ± 0.00013	–	5.62e-05 ± 1.9e-05
G40C G41C C68A	< 1e-05	–	–	–
G40U A42G G59C C68A	< 1e-05	< 1e-05	–	–
G40U A48C C50G A52U U55A	< 1e-05	< 1e-05	–	–
G40U G41A U56G	< 1e-05	–	–	–
G40U G41C C70A	6.65e-05 ± 1.8e-05	0.000546 ± 0.00013	–	–
G40U G41U G44C C50A G60A	< 1e-05	–	–	–
G40U G43U G51C U65C	< 1e-05	–	–	–
G40U G44U A64U	< 1e-05	< 1e-05	–	–
G40U G51A U65A	< 1e-05	–	–	–

Variant	self-cleavage kobs at 640 uM GlcN6P (glucosamine-6-phosphate [1]) [s⁻¹]	self-cleavage kobs at 2500 uM GlcN6P (glucosamine-6-phosphate [2]) [s⁻¹]	self-cleavage kobs at 10000 uM GlcN6P (glucosamine-6-phosphate [3]) [s⁻¹]	self-cleavage kobs at 160 uM GlcN6P (glucosamine-6-phosphate [4]) [s⁻¹]
G40U G51C	< 1e-05	< 1e-05	< 1e-05	–
G40U G60A	< 1e-05	–	< 1e-05	< 1e-05
G40U U46C U55G	0.000194 ± 6.6e-05	–	–	–
G40U U47G U49G A53U U54A G62U	< 1e-05	< 1e-05	–	< 1e-05
G41A U56G	5.1e-05 ± 1.4e-05	0.000109 ± 3.5e-05	0.000169 ± 4.7e-05	–
G41C C71U	3.67e-05 ± 8.3e-06	0.000119 ± 1.8e-05	0.00016 ± 1.7e-05	–
G41C G43A C70U	< 1e-05	< 1e-05	–	–
G41C U49C G60U C67A	< 1e-05	–	–	–
G41U A42C G66U	< 1e-05	< 1e-05	–	–
G41U A52G C58U C61G	< 1e-05	–	–	–
G41U G43A C50A A53U U57C A64U U65A	< 1e-05	< 1e-05	< 1e-05	–
G41U G43C C70G	< 1e-05	–	–	–
G41U U45A G51C C58G	< 1e-05	< 1e-05	–	–
G41U U49A U69C	< 1e-05	< 1e-05	–	–
G41U U49C	< 1e-05	–	–	< 1e-05
A42C A52U A64G	< 1e-05	< 1e-05	–	–
A42C C67U C71G	< 1e-05	–	–	–
A42C G43C C70U	< 1e-05	–	–	–
A42C U46G U49A	< 1e-05	–	–	–
A42G A48C	9.68e-05 ± 2.1e-05	0.000276 ± 8.7e-05	0.000506 ± 7.8e-05	–

Variant	self-cleavage kobs at 640 uM GlcN6P (glucosamine-6-phosphate [1]) [s⁻¹]	self-cleavage kobs at 2500 uM GlcN6P (glucosamine-6-phosphate [2]) [s⁻¹]	self-cleavage kobs at 10000 uM GlcN6P (glucosamine-6-phosphate [3]) [s⁻¹]	self-cleavage kobs at 160 uM GlcN6P (glucosamine-6-phosphate [4]) [s⁻¹]
A42G C50G G51U U56G	< 1e-05	–	–	–
A42G C58A	9.53e-05 ± 3.4e-05	0.000279 ± 0.00013	0.000379 ± 9.4e-05	–
A42U A53G G60A C70U	< 1e-05	–	< 1e-05	–
A42U A53G U57A	< 1e-05	–	–	–
A42U C67A U69G C71U	4.51e-05 ± 2e-05	7.23e-05 ± 1.9e-05	–	–
A42U G44C A52C U57G U65A U69C	< 1e-05	< 1e-05	–	–
A42U U45G U54C U57G	< 1e-05	–	–	–
A42U U46G	2.81e-05 ± 1.4e-05	3.86e-05 ± 1.2e-05	5.41e-05 ± 8.3e-06	–
A42U U54C A64C	< 1e-05	–	–	–
G43A A52U	< 1e-05	< 1e-05	–	< 1e-05
G43A G60C	< 1e-05	< 1e-05	< 1e-05	< 1e-05
G43C A53G C70A	< 1e-05	–	–	–
G43C G51U C61G	< 1e-05	< 1e-05	–	–
G43C G60A	< 1e-05	< 1e-05	< 1e-05	< 1e-05
G43C U49A	< 1e-05	–	–	–
G43C U55A G59C	< 1e-05	< 1e-05	–	–
G43C U55C	< 1e-05	< 1e-05	< 1e-05	< 1e-05
G43U C50G	< 1e-05	–	< 1e-05	–
